Data published in the supplement of paper PMC8728848.
The other results are listed elsewhere or left out.

Legend:
Experiment in all cases: glycan array binding signal (z-score within array); higher = stronger binding
Conditions in all cases: glycan notation: IUPAC condensed, linker removed
[1] = target: Gal(b1-3)GalNAc(b1-4)Gal(b1-4)Glc
Method in brief: (§1)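 Columns mapping to the same glycan were averaged after glycan names were converted to IUPAC-condensed notation. The data come from 3228 arrays in the Consortium for Functional Glycomics database, limited to those with an available protein sequence. Binding is reported as a within-array Z-score averaged across arrays of one protein sequence and across linkers.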

[2] = target: Gal(b1-3)GalNAc(b1-4)Gal3S(b1-4)Glc
Method in brief: as §1

[3] = target: Gal(b1-3)GalNAc(b1-4)[Neu5Ac(a2-3)]Gal(b1-4)Glc
Method in brief: as §1

[4] = target: Gal(b1-3)GalNAc(b1-4)[Neu5Gc(a2-3)]Gal(b1-4)Glc
Method in brief: as §1

Gal(b1-3)GlcNAc = target: Gal(b1-3)GlcNAc
Method in brief: as §1

[5] = target: Gal(b1-3)GlcNAc(b1-3)Gal(b1-4)Glc
Method in brief: as §1

[6] = target: Gal(b1-3)GlcNAc(b1-3)Gal(b1-4)GlcNAc(b1-3)Gal(b1-4)Glc
Method in brief: as §1

[7] = target: Gal(b1-3)GlcNAc(b1-3)Gal(b1-4)GlcNAc(b1-6)[Gal(b1-3)GlcNAc(b1-3)]Gal(b1-4)Glc
Method in brief: as §1

[8] = target: Gal(b1-3)GlcNAc(b1-3)Gal(b1-4)[Fuc(a1-3)]GlcNAc(b1-3)Gal(b1-4)Glc
Method in brief: as §1

[9] = target: Gal(b1-3)GlcNAc(b1-3)Gal(b1-4)[Fuc(a1-3)]GlcNAc(b1-6)[Gal(b1-3)GlcNAc(b1-3)]Gal(b1-4)Glc
Method in brief: as §1

[10] = target: Gal(b1-3)GlcNAc(b1-3)[Fuc(a1-3)[Gal(b1-4)]GlcNAc(b1-6)]Gal(b1-4)Glc
Method in brief: as §1

[11] = target: Gal(b1-3)GlcNAc(b1-3)[Fuc(a1-3)[Gal(b1-4)]GlcNAc(b1-6)]Gal(b1-4)]GlcNAc(b1-6)[Gal(b1-4)]GlcNAc(b1-3)]Gal(b1-4)Glc
Method in brief: as §1

[12] = target: Gal(b1-3)GlcNAc(b1-3)[Gal(b1-4)GlcNAc(b1-6)]Gal(b1-4)Glc
Method in brief: as §1

[13] = target: Gal(b1-3)GlcNAc(b1-3)[Gal(b1-4)GlcNAc(b1-6)]Gal(b1-4)GlcNAc(b1-6)[Gal(b1-3)GlcNAc(b1-3)]Gal(b1-4)Glc
Method in brief: as §1

[14] = target: Gal(b1-3)[Fuc(a1-4)]GlcNAc
Method in brief: as §1

[15] = target: Gal(b1-3)[Fuc(a1-4)]GlcNAc(b1-3)Gal(b1-4)Glc
Method in brief: as §1

[16] = target: Gal(b1-3)[Fuc(a1-4)]GlcNAc(b1-3)Gal(b1-4)[Fuc(a1-3)]Glc
Method in brief: as §1

[17] = target: Gal(b1-3)[Fuc(a1-4)]GlcNAc(b1-3)Gal(b1-4)[Fuc(a1-3)]GlcNAc(b1-3)Gal(b1-4)Glc
Method in brief: as §1

[18] = target: Gal(b1-3)[Fuc(a1-4)]GlcNAc(b1-3)Gal(b1-4)[Fuc(a1-3)]GlcNAc(b1-6)[Gal(b1-3)[Fuc(a1-4)]GlcNAc(b1-3)]Gal(b1-4)Glc
Method in brief: as §1

[19] = target: Gal(b1-3)[Fuc(a1-4)]GlcNAc(b1-3)[Fuc(a1-3)[Gal(b1-4)]GlcNAc(b1-6)]Gal(b1-4)Glc
Method in brief: as §1

[20] = target: Gal(b1-3)[Neu5Ac(a2-6)]GlcNAc(b1-3)Gal(b1-4)Glc
Method in brief: as §1

Gal(b1-4)Glc = target: Gal(b1-4)Glc
Method in brief: as §1

Gal(b1-4)GlcNAc = target: Gal(b1-4)GlcNAc
Method in brief: as §1

[21] = target: Gal(b1-4)GlcNAc(b1-2)Man(a1-3)[Gal(b1-4)GlcNAc(b1-2)Man(a1-6)]Man(b1-4)GlcNAc(b1-4)GlcNAc
Method in brief: as §1

[22] = target: Gal(b1-4)GlcNAc(b1-2)Man(a1-3)[Gal(b1-4)GlcNAc(b1-2)Man(a1-6)]Man(b1-4)GlcNAc(b1-4)[Fuc(a1-6)]GlcNAc
Method in brief: as §1

[23] = target: Gal(b1-4)GlcNAc(b1-2)Man(a1-3)[Gal(b1-4)GlcNAc(b1-2)Man(a1-6)][GlcNAc(b1-4)]Man(b1-4)GlcNAc(b1-4)[Fuc(a1-6)]GlcNAc
Method in brief: as §1

[24] = target: Gal(b1-4)GlcNAc(b1-2)Man(a1-3)[Man(a1-6)]Man(b1-4)GlcNAc(b1-4)GlcNAc
Method in brief: as §1

[25] = target: Gal(b1-4)GlcNAc(b1-2)Man(a1-6)[GlcNAc(b1-2)Man(a1-3)]Man(b1-4)GlcNAc(b1-4)[Fuc(a1-6)]GlcNAc
Method in brief: as §1

[26] = target: Gal(b1-4)GlcNAc(b1-2)Man(a1-6)[Man(a1-3)]Man(b1-4)GlcNAc(b1-4)GlcNAc
Method in brief: as §1

[27] = target: Gal(b1-4)GlcNAc(b1-2)Man(a1-6)[Man(a1-3)]Man(b1-4)GlcNAc(b1-4)[Fuc(a1-6)]GlcNAc
Method in brief: as §1

[28] = target: Gal(b1-4)GlcNAc(b1-2)[Gal(b1-4)GlcNAc(b1-4)]Man(a1-3)[Fuc(a1-3)[Gal(b1-4)]GlcNAc(b1-2)Man(a1-6)]Man(b1-4)GlcNAc(b1-4)GlcNAc
Method in brief: as §1

[29] = target: Gal(b1-4)GlcNAc(b1-2)[Gal(b1-4)GlcNAc(b1-4)]Man(a1-3)[Gal(b1-4)GlcNAc(b1-2)Man(a1-6)]Man(b1-4)GlcNAc(b1-4)GlcNAc
Method in brief: as §1

[30] = target: Gal(b1-4)GlcNAc(b1-2)[Gal(b1-4)GlcNAc(b1-4)]Man(a1-3)[Gal(b1-4)GlcNAc(b1-2)[Gal(b1-4)GlcNAc(b1-6)]Man(a1-6)]Man(b1-4)GlcNAc(b1-4)GlcNAc
Method in brief: as §1

Gal(b1-4)GlcNAc(b1-3)Fuc = target: Gal(b1-4)GlcNAc(b1-3)Fuc
Method in brief: as §1

[31] = target: Gal(b1-4)GlcNAc(b1-3)Gal(b1-4)Glc
Method in brief: as §1

[32] = target: Gal(b1-4)GlcNAc(b1-3)Gal(b1-4)GlcNAc(b1-3)Gal(b1-4)Glc
Method in brief: as §1

[33] = target: Gal(b1-4)GlcNAc(b1-3)[Fuc(a1-3)[Gal(b1-4)]GlcNAc(b1-6)]Gal(b1-4)Glc
Method in brief: as §1

[34] = target: Gal(b1-4)GlcNAc(b1-3)[Gal(b1-4)GlcNAc(b1-6)]Gal(b1-4)Glc
Method in brief: as §1

[35] = target: Gal(b1-4)GlcNAc(b1-3)[Gal(b1-4)GlcNAc(b1-6)]Gal(b1-4)GlcNAc(b1-3)Gal(b1-4)Glc
Method in brief: as §1

[36] = target: Gal(b1-4)GlcNAc(b1-3)[Gal(b1-4)GlcNAc(b1-6)]Gal(b1-4)GlcNAc(b1-3)[Gal(b1-4)GlcNAc(b1-6)]Gal(b1-4)GlcNAc(b1-3)Gal(b1-4)Glc
Method in brief: as §1

[37] = target: Gal(b1-4)GlcNAc(b1-3)[Gal(b1-4)GlcNAc(b1-6)]Gal(b1-4)GlcNAc(b1-3)[Gal(b1-4)GlcNAc(b1-6)]Gal(b1-4)GlcNAc(b1-3)[Gal(b1-4)GlcNAc(b1-6)]Gal(b1-4)GlcNAc(b1-3)Gal(b1-4)Glc
Method in brief: as §1

[38] = target: Gal(b1-4)GlcNAc(b1-3)[Gal(b1-4)GlcNAc(b1-6)]Gal(b1-4)GlcNAc(b1-3)[Gal(b1-4)GlcNAc(b1-6)]Gal(b1-4)GlcNAc(b1-3)[Gal(b1-4)GlcNAc(b1-6)]Gal(b1-4)GlcNAc(b1-3)[Gal(b1-4)GlcNAc(b1-6)]Gal(b1-4)GlcNAc(b1-3)Gal(b1-4)Glc
Method in brief: as §1

Gal(b1-6)GalNAc = target: Gal(b1-6)GalNAc
Method in brief: as §1

[39] = target: Gal3S(b1-3)GalNAc(b1-4)Gal3S(b1-4)Glc
Method in brief: as §1

[40] = target: Gal3S(b1-3)[Fuc(a1-4)]GlcNAc
Method in brief: as §1

Measured: glycan array binding signal (z-score)

B1: ZG16p (Homo sapiens), O60844 (protein)
chain: ARSSSYSGEYGGGGGKRFSHSGNQLDGPITALRVRVNTYYIVGLQVRYGKVWSDYVGGRNGDLEEIFLHPGESVIQVSGKYKWYLKKLLFVTDKGRYLSFGKDSGTSFNAVPLHPNTVLRFISGRSGSLIDAIGLHWDVYPSSCSRC
0.304: Gal(b1-3)GlcNAc
-0.206: [31]
-0.273: [24]
-0.311: [36]
-0.133: Gal(b1-4)Glc
-0.395: [25]
-0.215: [14]
-0.355: [21]
-0.107: [26]
-0.232: [12]
0.209: Gal(b1-4)GlcNAc
-0.191: Gal(b1-6)GalNAc
-0.42: [22] | [23] | [28] | [30]
-0.092: [27]
-0.328: all other assays above
